The labels stand for the following.
B1: CPEB3 Ribozyme (parent)
chain: UAACAGGGGGCCACAGCAGAAGCGUUCACGUCGCAGCCCCUGUCAGAUUCUGGUGAAUCUGCGAAUUCUGCUGUAUAUCUC

Read counts are not given, so values of variants with three or more changes are uncertain.

In the data set the parent is B1. Nature of the data set: self-cleavage, relative activity (ratio to wild type); higher = more cleavage; in vitro, sequencing. The procedure, abridged: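 CPEB3 self-cleaving ribozyme mutant libraries were made by rounds of error-prone PCR, barcoded, and transcribed in vitro with T7 RNA polymerase for 5 hours at 37°C. Cleavage occurred during transcription and a 15 min DNase I step before EDTA stop. RNAs were reverse transcribed with template switching and Illumina-sequenced, with DNA sequencing mapping barcodes to variants. Relative activity is the variant's cleaved/total read fraction divided by wild type's (minimum 5 reads), averaged across three batches.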
Regarding C12U A18C A21G U60A A64G U69C, the self-cleavage came to 0.06.
Under C12U C17U U54A stands 1.08; under C12A A28U U41C, 0.67.
In the case of C12A A13G C32U U54G A57G U66C, the self-cleavage was found to be 0.18.
For the variant C12U C40A U54C U58C U80C, the self-cleavage stood at 0.05.
In the case of C12U G33A A35G A47U A65G it was 0.08; in that of C12U A18G A56U, 0.38.
In the case of C12U A13G U26C A28G A47U G63A U80A it was 0.04.
Under C12U A28U A35C stands 0.52; under C12A A18C A35G U66C, 0.13.
C12U A45G U51A U69A: the self-cleavage was determined as 0.7.
Under C12U A18C C29U C32U U72C stands 0.22.
In the case of C12A A13U A35G A47G U72A it was 0.47; in that of C12U A13G U48C, 0.69.
In the case of C12G A20G A35G A45G A65U U74C it was 0.14; in that of C12U A15G U49C, 0.08; in that of C12U A28G U67A U76C, 0.63.
Consider C12G A35G U58C, for which the self-cleavage was determined as 0.14.
Regarding C12U A18G U49C C71A, the self-cleavage is 0.15.
With C12G U31C C37G U60A U66C U78A, the self-cleavage came to 0.03.
Under C12A A18G A28U A45U U58G stands 0.23; under C12U A15G C37A C39U U43A, 0.09.
Take C12U A13C U25C U51C A64U U67C: the self-cleavage was determined as 0.04.
In the case of C12G A45U U49A U80A it was 0.21; in that of C12A U26C U41A A45G U54C U60C U67C, 0.16.
In the case of C12U C14U G16U A56G U60A it was 0.19; in that of C12A U25C A47C A64G U72C U78A, 0.1.
For the variant C12A A45G G70A, the self-cleavage is 0.27.
With C12A U31C U58C A64G A65U U69C U80C, the self-cleavage is 0.26.
As for C12U A15G A65G U78A U80A, the self-cleavage worked out at 0.75.
Under C12U A15U A18U stands 0.48; under C12U U25G U78A, 0.85; under C12A A15G A28U C32A, 0.09.
Turning to C12A A21G G42U, the self-cleavage amounted to 0.24.
In the case of C12G A45U U51C U69C it was 0.19; in that of C12U G24A A35G U74G, 0.1.
Take C12G U31C U43A U51A U72A C81A: the self-cleavage worked out at 0.12.
As for C12A A15U A35U U51A C62U U80C, the self-cleavage stood at 0.34.
C12U A18G U54C: the self-cleavage is 0.96.
In the case of C12U A21G U51C U69C it was 0.36.
Under C12U A18G A56G A75U stands 1.04; under C12A C27G A47C, 0.1.
Under C12U A18C U49C U60A stands 0.14.
Regarding C12G A18G U25C G33A A56G U72A, the self-cleavage was 0.09.
C12U A18G A45G U54C U72C U74A: the self-cleavage was found to be 0.64.
Take C12A A18U A45U U72C U80C: the self-cleavage came out at 0.47.
In the case of C12U C14A U67C U80C it was 0.63.
Under C12A U26A A28U U80A stands 0.39; under C12U A21U U58A, 0.11; under C12U A18G C37U G73C, 1.18.
Regarding C12U A13G U25C A57C U60C U69A U72A, the self-cleavage amounted to 0.04.
Under C12U A18U C59A U69A stands 0.84; under C12U A21G C27A A35G A65U U74C C79U, 0.05; under C12A A21G U31C G33A C59U U80A, 0.21.
Consider C12G A47G A64U U72C, for which the self-cleavage amounted to 0.16.
As for C12A U31C U41C U54C, the self-cleavage came out at 0.52.
For C12A A57G U78C, the self-cleavage stood at 0.71.
On to C12G U54C U72A, for which the self-cleavage is 0.07.
For the variant C12U A15U U31C A35U, the self-cleavage is 0.79.
Under C12A A28U A57G U67C stands 0.16.
For C12A A28G U54A U66A, the self-cleavage is 0.41.
C12A A28G A64G U67A: the self-cleavage stood at 0.12.
Under C12U A18G A20U A21C U41C A45G stands 0.04; under C12G A18U U31C, 0.22; under C12U A47G U74C, 1.3.
On to C12G G24A U74A, for which the self-cleavage stood at 0.06.
In the case of C11U U66C U78C it was 0.06; in that of C12U U25C U69C, 0.15; in that of C12A U25C C29U A45U A65C A77U, 0.07.
In the case of C12G G55U A64G it was 0.19.
In the case of C12U A20G G46U U80C it was 0.15; in that of C12G G53A A77U, 1.08.
C12U C17G A56U A64G: the self-cleavage turned out to be 0.07.
On to C12A A13G A35G C39G U67C C68G, for which the self-cleavage came to 0.09.
Consider C12G A20G U41C A45U U49A U72C, for which the self-cleavage is 0.17.
In the case of C12A A15U A18U A21C C27G A47G it was 0.04; in that of C12U C44A U72A, 0.56.
As to C12U G36C U78C, the self-cleavage is 0.19.
For the variant C12A A28G U66A U74C, the self-cleavage came to 0.42.
Under C12G C40A U54C A56G stands 0.1; under C12A U25C U60A U69C, 0.3.
Under C12U A28G A35C stands 0.43; under C12A A15U A21G U72C U78C, 0.52.
Consider C12U A13C A18G U26A, for which the self-cleavage came to 0.93.
As to C12A A35U U48G, the self-cleavage was found to be 0.77.
Regarding C12U G24A A35G U51C, the self-cleavage is 0.09.
Take C12A U25C U41C U76C A77G: the self-cleavage was 0.12.
Under C12A U43A U54G A65G stands 0.29; under C12A A45U A47G U72C U80A, 0.28.
Turning to C12U A18G C29U U69C A75G U80A, the self-cleavage turned out to be 1.26.
Consider C12U A35G U43C A57G U69C, for which the self-cleavage amounted to 0.27.
Regarding C12G G33A A35G A47G, the self-cleavage amounted to 0.17.
In the case of C12G A18G C40A it was 0.15; in that of C11U U60C U69C U72C U76C A77U, 0.09.
Consider C12G A15G U26A C32G U69A A75G, for which the self-cleavage was 0.1.
In the case of C12U U25A U26C U66C U76C it was 0.16; in that of C12U A13G A64G, 0.58; in that of C12U A13G U51G U78C, 0.57.
In the case of C12U G30C U69C U80A it was 0.05; in that of C12U A45G U66C, 0.66.
Under C12G G24U U25C U31C A56G stands 0.14; under C12G A13U U25C C38A C40A, 0.3; under C11U U67A C79U, 0.1.
As for C12U A15C A47G C68A U72C, the self-cleavage is 0.74.
As for C12U U25A A45U U58C, the self-cleavage turned out to be 0.08.
Under C12G A21G U54A stands 0.23.
Take C12G A13G U51A A56U U69A A77U: the self-cleavage was 0.15.
For C12U C17U U26A A45G, the self-cleavage turned out to be 0.34.
Take C12U A35G A65U: the self-cleavage amounted to 0.37.
Consider C12U G24C U25C U26C U60A A65C U66C, for which the self-cleavage was 0.05.
For the variant C12A A15G C32A A35U A77G, the self-cleavage was 0.34.
Turning to C12A A13U U43C A64G, the self-cleavage is 0.5.
Under C12A C40A U58C stands 0.45; under C12U A35C A45G U67C, 0.15; under C12U A13G U25C A35U U69C U78C, 0.07.
In the case of C12A A35G U41G U54A U76A it was 0.32; in that of C12A A35G G55A U60C U80G, 0.08.
Under C12A U25C U51A stands 0.56; under C12U C50A A56U, 1.3.
Take C12A A28G C34U: the self-cleavage is 0.38.
In the case of C12A G33A A56U U69C, the self-cleavage came to 0.07.
For C12U C27G U43A A77U, the self-cleavage worked out at 0.28.
In the case of C12A U25C U48A U58C U78C it was 0.06.
Turning to C12U A20G U80C, the self-cleavage turned out to be 1.09.
In the case of C12U G30A U43C A77G it was 0.09; in that of C12A U76C A77G, 1.05.
In the case of C12U A18G U25C G46A, the self-cleavage is 0.1.
Under C12G C44A U58C U60C U69C U80C stands 0.09; under C12G C40G A64G, 0.07.
Under C12U A15C U54C U72A stands 1.18; under C12U A35U U43C, 0.78.
Turning to C12U A20G U41C U69C, the self-cleavage was 0.67.
C12U C32A C40A U43C A57G: the self-cleavage was determined as 0.31.
With C12G C29G A75G, the self-cleavage came out at 0.06.
In the case of C12A C34A U60C U78C it was 0.08; in that of C12U A35G U51G U54C, 1.26; in that of C12U A18C A28G A45G U49C U74A, 0.24.
In the case of C12U A13G U31A U43C U80C it was 0.14; in that of C12A A15G U69A, 0.4.
Turning to C12A A13U A15U A20U U25A U41C A75G, the self-cleavage worked out at 0.1.
Under C12U G30A U31C stands 0.09; under C12U A15U A65G U67C U69C, 0.23; under C12G A13G A45U U69A, 0.24.
Consider C12G C39A A45U G52U U69C, for which the self-cleavage turned out to be 0.04.
With C12U G53A U66C, the self-cleavage is 0.86.
In the case of C12U A21G A57G U60A it was 0.38; in that of C12U C23A U54A A77U, 0.28.
Consider C12A A13U A15G C32A U72A, for which the self-cleavage amounted to 0.08.
In the case of C12U U25A A28G A45G it was 0.07; in that of C12U A15G C37U U60A U76C, 0.19; in that of C12U A21G A35G G42A U51A U80G, 0.06.
Under C12A U51A G52A A65C stands 0.26; under C12G A20G U25C C32A U41A U60C A65U, 0.1.
With C12A U25C A35U U80A, the self-cleavage was found to be 0.38.
In the case of C12U A15G A21G C38G U43A it was 0.06.
In the case of C12A A56U U58A U69C it was 0.14; in that of C12A C32U U54C, 0.09; in that of C12A U41C U54G, 0.91.
Under C12U A18U A21C U41C A56G A57G U60A stands 0.06.
Turning to C12U A13U U54C U69C U80A, the self-cleavage was 0.87.
Under C12U A18G A20G U41A A56G U60C U80A stands 0.05.
In the case of C12U A28G A56G U72A, the self-cleavage stood at 0.55.
Under C12A A13G A18U stands 0.24.
In the case of C11U U58A U67C it was 0.11; in that of C12U A18G U25A G52U, 0.08.
Regarding C12A U48C C62U C68A U69C U76A, the self-cleavage is 0.28.
As to C12G A18G A28G A56G A64U U72A U78A, the self-cleavage came to 0.12.
